One assay concerns HSkMC. The experiment in a line: cytotoxicity call (relative viability < 0.9). As to conditions: 10 µM.
For another assay, the system named is HepG2. The assay can be described thus: cytotoxicity call (relative viability < 0.9). As to conditions: 10 µM.
Another assay has as its system S. aureus RN4220. The experiment in a line: growth inhibition call (relative growth <= 0.2). As to conditions: 50 µM.

This is one part of the list.

Take `C[C@@H]1CCCCO[C@@H](CN(C)CC2CCCCC2)[C@H](C)CN([C@H](C)CO)C(=O)c2cc(NC(=O)CCCCCC(=O)Nc3ccccc3N)ccc2O1`: the cytotoxicity call with HSkMC and in the assay on HepG2 was “inactive” in each case. Besides, in the assay with S. aureus RN4220, the growth inhibition call was “inactive”.
With `O=c1c(-c2ccc(O)cc2)coc2c([C@H]3O[C@H](CO)[C@@H](O)[C@H](O)[C@H]3O)c(O)ccc12`, the cytotoxicity call in the assay with HSkMC and with HepG2 was “inactive” each time. In addition, the growth inhibition call with S. aureus RN4220 is “inactive”.
For `C[C@H]1CN([C@@H](C)CO)C(=O)c2cc(NC(=O)Cc3ccccc3)ccc2O[C@@H]1CN(C)Cc1ccc(Cl)c(Cl)c1`, the cytotoxicity call in the assay with HSkMC and in the assay on HepG2 was “inactive” throughout. Further, in the assay on S. aureus RN4220, the growth inhibition call was “inactive”.
Turning to `C[C@@H]1CN([C@@H](C)CO)C(=O)c2cc(NC(=O)Nc3ccc(F)cc3)ccc2O[C@@H]1CN(C)Cc1ccc(-c2ccccc2)cc1`, the cytotoxicity call in the assay with HSkMC and in the assay with HepG2 was “active” throughout. For the same molecule, the growth inhibition call in the assay on S. aureus RN4220 is “inactive”.
Turning to `CO[C@@]1(C(=O)NN)COc2ccccc2O1`, the cytotoxicity call in the assay with HSkMC and with HepG2 was “inactive” each time. Also, the growth inhibition call in the assay on S. aureus RN4220 was “inactive”.
As for `C[C@@H]1CCCCO[C@H](CN(C)C(=O)Nc2ccccc2)[C@@H](C)CN([C@@H](C)CO)C(=O)c2cc(NC(=O)CCC(F)(F)F)ccc2O1`, the cytotoxicity call in the assay with HSkMC and in the assay on HepG2 was “inactive” in each case. For the same molecule, the growth inhibition call in the assay on S. aureus RN4220 was “inactive”.
On to `c1ccc(-c2cc(-c3nc4ccccc4[nH]3)c3ccccc3n2)cc1`, for which the cytotoxicity call in the assay with HSkMC and in the assay with HepG2 was “inactive” in each case. The growth inhibition call with S. aureus RN4220 was “inactive”.
Take `C[C@@H]1CN([C@H](C)CO)C(=O)c2cc(NS(=O)(=O)c3cn(C)cn3)ccc2O[C@@H]1CN(C)C(=O)Nc1ccc(F)cc1`: the cytotoxicity call with HSkMC and with HepG2 was “inactive” each time. In addition, the growth inhibition call with S. aureus RN4220 is “inactive”.
In the case of `Cc1ccc(S(=O)(=O)Nc2ccc3c(c2)C(=O)N([C@@H](C)CO)C[C@@H](C)[C@H](CN(C)S(=O)(=O)c2ccccc2)O3)cc1`, the cytotoxicity call in the assay on HSkMC and in the assay with HepG2 was “inactive” throughout. For the same molecule, the growth inhibition call in the assay on S. aureus RN4220 is “inactive”.
In the case of `O=C1C(O)=C(C2CCC(c3ccc(Cl)cc3)CC2)C(=O)c2ccccc21` (configuration not stated), the cytotoxicity call in the assay with HSkMC is “inactive”. In the assay on HepG2, the cytotoxicity call is “active”. Further, the growth inhibition call in the assay on S. aureus RN4220 was “inactive”.
With `Cc1noc(C)c1S(=O)(=O)Nc1ccc2c(c1)C(=O)N([C@H](C)CO)C[C@@H](C)[C@H](CN(C)C(=O)Nc1cccc3ccccc13)OCCCC[C@@H](C)O2`, the cytotoxicity call in the assay on HSkMC and in the assay with HepG2 was “inactive” throughout. Besides, the growth inhibition call with S. aureus RN4220 is “inactive”.
Turning to `COc1ccc(NC(=O)Nc2ccc3c(c2)C(=O)N([C@@H](C)CO)C[C@@H](C)[C@@H](CN(C)Cc2ccc(Oc4ccccc4)cc2)O3)cc1`, the cytotoxicity call in the assay with HSkMC was “inactive”. Besides, the cytotoxicity call with HepG2 was “active”. The growth inhibition call with S. aureus RN4220 is “inactive”.
With `COc1cccc(S(=O)(=O)N(C)C[C@@H]2Oc3ncc(C#CCC(C)C)cc3C(=O)N([C@H](C)CO)C[C@H]2C)c1`, the cytotoxicity call in the assay with HSkMC and in the assay with HepG2 was “inactive” throughout. Besides, in the assay on S. aureus RN4220, the growth inhibition call was “inactive”.
In the case of `C[C@H](CO)N1C[C@H](C)[C@H](CN(C)Cc2ccccc2F)Oc2cc(C#CC3CC3)ccc2S1(=O)=O`, the cytotoxicity call in the assay on HSkMC (human skeletal muscle cells) and with HepG2 was “inactive” throughout. Further, in the assay with S. aureus RN4220, the growth inhibition call was “inactive”.
